Source: PubChem BioAssay AID686970 (National Center for Advancing Translational Sciences (NCATS), 2013)
About 6,000 (1.7%) of roughly 360,000 compounds were called active. This list was built around the results that the source calls inconclusive (neither active nor inactive); the mix of calls is not that of the screen. Calls come from the whole dose curve; as a rule, active = well fitted cell-killing curve with a large enough effect; inconclusive = small, poorly fitted or top-dose-only effect, or effect the other way; inactive = flat fitted curve, though single readings scatter. Potencies of inconclusive entries are left out as doubtful fits.

Test: qHTS for induction of synthetic lethality in tumor cells producing 2HG: qHTS for the HT-1080-NT fibrosarcoma cell line;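 note: NT is the 2HG producing partner of a matched IDH1 knockdown line; nearly all actives have a fitted effect of over 55% in size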;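 for activity, negative = less viability: 0% = DMSO-treated cells and -100% = media-only wells without cells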
Conditions: HT-1080-NT fibrosarcoma viability, CellTiter-Glo ATP luminescence, 48 h; activity, negative = less viability: at 46.1 µM (top of the series) unless noted
Method in brief: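 Read-out is CellTiter-Glo luminescence after 10 minutes at room temperature, following 48 hours' compound treatment of HT-1080-NT cells (750 cells/well, RPMI, 5% FBS, 37 degrees C).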
Potency is the fitted concentration of half-maximal effect; tags give direction and shape of the fitted curve.

Structure (SMILES) | Potency | activity, negative = less viability
Cc1ccc(C)c(N=Nc2ccc(O)c3ncccc23)c1 | inconclusive [cytotoxic, full curve] | –
CC(=O)c1cccc(-c2cnc3c(NC=O)cc(-c4ccc(N(C)C)cc4)cn23)c1 | inconclusive [cytotoxic, single point] | –
Cc1ccc(-c2cc(C(=O)N3N=C(C(F)F)CC3(O)C(F)F)c3ccccc3n2)cc1C (configuration not stated) | inconclusive [cytotoxic, single point] | –
O=C(c1ccc(Cl)cc1)C1CCCN(Cc2cnn(-c3ccccc3)c2)C1 (configuration not stated) | inconclusive [cytotoxic, single point] | –
O=C(O)c1ccccc1C(=O)N1CC=C(c2ccccc2)CC1 | – | inactive: 4.24%
O=C(Nc1ccc(Cl)cc1Cl)c1ccc2ncsc2c1 | – | inactive: -7.44%
O=c1[nH]c(=S)[nH]cc1Oc1ccc(Br)cc1Br | – | inactive: 2.91%
O=C(CSc1nnnn1-c1ccc(F)cc1)c1ccc(O)c(O)c1 | – | inactive: -4.66%
O=C(c1ccc(CNc2c(NC3CCCCC3)c(=O)c2=O)cc1)N1CCc2ccccc21 | – | inactive: 1.77%
c1ccc(COc2ccccc2CNC23CC4CC(CC(C4)C2)C3)cc1 | active: 13 µM | –
Cc1occc1-c1nc(-c2ccccn2)no1 | inconclusive [cytotoxic, partial curve] | –
COc1ccc(-c2sc3ccc(N4CCOCC4)cc3c2C#CC2(O)CCCCC2)cc1 | active: 20.6 µM | –
O=C(c1ccccc1)c1nn(-c2ccccc2)c(=O)cc1C(F)(F)F | inconclusive [cytotoxic, single point] | –
C/C(=N\NC(=O)COc1ccc(C(C)(C)C)cc1)c1ccc(N2CCOCC2)cc1 | inconclusive [cytotoxic, single point] | –
Cc1sc2ncnc(NCC(O)c3ccc([N+](=O)[O-])cc3)c2c1C (configuration not stated) | inconclusive [cytotoxic, partial curve, poor fit] | –
CCCCCCCC(=O)NN1CCOCC1 | – | inactive: 17.2%
CC(=O)c1ccc(NC(=S)NC(NC(=O)c2ccco2)C(Cl)(Cl)Cl)cc1 (configuration not stated) | inconclusive [cytotoxic, single point] | –
CCC(=O)NC1=C(NC(C)c2ccccc2)C(=O)c2ccccc2C1=O (configuration not stated) | – | inactive: -8.9%
COc1ccc(-c2noc(C3CCCN(C(=O)Nc4ccccc4)C3)n2)cc1 (configuration not stated) | – | inactive: -13.6%
Cc1cc(NC(=O)CSCC(=O)Nc2cc(Cl)ccc2N2CCN(C)CC2)no1 | – | inactive: -1.35%
Cc1cc(=O)oc2cc(NC(=O)c3ccc(OC(F)F)cc3)ccc12 | – | inconclusive: 32.3%
COC(=O)c1ccc(CSc2nc3ccccc3c(=O)n2Cc2ccco2)o1 | inconclusive [cytotoxic, single point] | –
